Data reported in the RNAGym collection of RNA variant scans (doi:10.7554/elife.90254).
The source gives no read counts; variants with many changes may rest on few reads.

B1: LINE1-mini (parent)
chain: GGCAGAGCUCAACACAGCGUGGCAAAGUGGCUGUGGCUAGACUGCC

Variants of: B1
Experiment: self-cleavage, relative activity (ratio to wild type); higher = more cleavage; in vitro, sequencing; the parent is a self-cleaving ribozyme

Row | Variant | self-cleavage
1 | G1A A4G A25U G27C A39U U43C | 0.27
2 | G2U C8A G30U G35C | 0.08
3 | G27A C42A C46U | 0.16
4 | C18A A25U C31U G36U | 0.06
5 | G7A C10A G30C C37A U38A A39C | 0.01
6 | C15A G17A G29A G40U | 0.02
7 | G1C G33C G40C A41U | 0.01
8 | U9A G19C C42G U43G | 0
9 | G27A G29A G35U | 0.08
10 | G21A U34A G35C | 0.19
11 | G1A A4U C10U C23U G30U | 0.31
12 | C18A C23G G30A | 0.9
13 | G22A A25C G36C U43G | 0
14 | C8U C10A A26C G30C | 0.01
15 | C8G G17A G22C G33C | 0.02
16 | G7A G30U G36U | 0.6
17 | G2A G7U C18U G19C C23A C31A U43A | 0.2
18 | G5C G22C A26G A39U U43C | 0.03
19 | G2A A25C G30A | 0.44
20 | C13A G17A A25U C31U G36U G40U | 0.04
21 | A6U C10A A26G G29U | 0.17

Row | Variant | self-cleavage
22 | G2A C3A C23A A24C G27U U32A G40A C42A | 0.63
23 | A11C G27C U32C A39G | 0.01
24 | C18A G19U G27U G36U | 0.04
25 | U9G C18A G19C | 0.04
26 | G5U G19U G27A A39C | 0.02
27 | C13A G22C A24U C46U | 0.03
28 | G5C G35A G36A C37A | 0.05
29 | A14C A24U G27U G44U | 0.2
30 | G1C G2C C8U C13G | 0.07
31 | C18A C37U C46A | 0
32 | G2U C3U G19U G22A | 0.18
33 | A4C G29A C42A | 0.23
34 | A4C A26C G33A A39G | 0.35
35 | G5C G7A C8U U9C G30C | 0.02
36 | C15G C18G U20A G27A A41G | 0.02
37 | C10G G35A U38C | 0.01
38 | G5U G22U A24C | 0
39 | G1A C3A A16C | 1.12
40 | G7U A16G G27C | 0.06
41 | U32A A41G C45U | 0
42 | C13U A14U U32A G35A | 0.03

Row | Variant | self-cleavage
43 | A6C C23A U28G G40U | 0.38
44 | U9A A12G A26U G27A | 0.04
45 | G2C U20G C31A A39U U43A | 0.05
46 | A12C C23U A26G G40U | 0.12
47 | G19C G30U G33C U34C A39C C42G C45G | 0.01
48 | G2C G5U C23G G27C G35U | 0.08
49 | G17A G33U U43G C45A | 0.01
50 | U20A A25U G35A | 0.09
51 | G19C U32G A41U | 0.05
52 | G5A A6U G22A | 0.11
53 | C10G G22U G27C | 0.05
54 | A4C C18U G21U | 0.28
55 | A25C G35U G36U | 0.31
56 | C10U A11U C18U A26G G35U | 0.03
57 | C10U A11U U32C | 0.04
58 | C8G C18U C23A U32A | 0.13
59 | C15U G27C U32G C42G U43A | 0.01
60 | C3U G27U U38G | 0.1
61 | C8A U20G G21U G29U | 0.14
62 | G7C C10A C13U G30C U43C | 0.03
63 | C10A U32G G35U G40C | 0.06

Row | Variant | self-cleavage
64 | C3A U9A G19A U32A C45U | 0.52
65 | A11G G21A C45A | 0.01
66 | A11C G30C C37A G44C | 0
67 | G1C C15U C23U C31U | 0.04
68 | G1C A14U C37U A41C | 0.01
69 | G17A A24G G36C | 0.05
70 | C10A A12C A16G G19U A24C G27C | 0
71 | G5C U9A G19A A26G | 0.04
72 | C10G A11U U20G U32G C37A C42G | 0
73 | C23A A26C U32G C37A A41U | 0.05
74 | C13U A16U G22U A39G | 0.11
75 | G7C C10A C42A | 0.01
76 | C3A G5U A25C | 0.26
77 | A6C G7C C13G G44C | 0.13
78 | G7C A11U G22U G27U | 0.01
79 | G5C G30A C37A | 0.05
80 | C10G A26G G36A G40U U43G | 0
81 | C8U C10A G27A | 0.03
82 | G1U C13U G21A U32G | 0.04
83 | C3U A4U U28C G33C A41U | 0.12
84 | G22C A41C C46A | 0.04
